The full ranking holds about 33,000 sequences; the median of “E-score (-0.5 to 0.5)” is about -0.04, and the highest 2% start at about 0.36. This is one part of the list.
Biological target: T1, Hmlalpha2 (UniProt P0CY09)
T1 sequence: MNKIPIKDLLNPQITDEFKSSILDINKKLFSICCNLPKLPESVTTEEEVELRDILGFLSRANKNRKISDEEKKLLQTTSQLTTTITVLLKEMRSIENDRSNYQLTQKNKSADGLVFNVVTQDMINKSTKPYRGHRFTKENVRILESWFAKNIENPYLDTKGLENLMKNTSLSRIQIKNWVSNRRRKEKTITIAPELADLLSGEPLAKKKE
Assay: PBM E-score (8-mer binding enrichment) (E-score (-0.5 to 0.5)); higher = stronger / more preferred TF binding; most listed sequences are background and not binding sites
Details: protein concentration: 200 nM; construct: GST-full length
In short: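 Yeast transcription factors carrying a GST tag, as full-length proteins or DNA-binding domains, were produced by PURExpress in vitro transcription/translation. About 100-200 nM protein was applied to universal all-10-mer Agilent arrays, double-stranded by primer extension on fresh or once-stripped slides. Bound protein was detected with fluorescent anti-GST, and scans were normalised with masliner. The Universal PBM Analysis Suite gave each ungapped eight-base word, pooled with its reverse complement, an E-score, a modified Wilcoxon-Mann-Whitney statistic.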

Sequence	PBM E-score
GGTTAGAC	-0.00223
AGTTAGAT	0.102
AGAGACTG	-0.296
ATCACCGC	-0.0669
ACTCGCCA	-0.0518
ACCGAGCA	-0.175
GGAATGCA	-0.206
ACGCGTTA	0.342
ACGAGTTG	0.129
GTTTATCA	0.126
AACTAAGT	0.161
CCTTCACG	-0.00517
CCCTGCAG	-0.0788
CGTGAGAG	-0.281
GGCCAAGA	-0.271
CCAAAGTC	-0.141
GGCTGGAA	-0.126
ATGTGTCC	0.0563
CGTTTTGC	0.0605
CTCGCACA	-0.0971
GCTGGGGA	-0.272
CTGACAGC	-0.246
CAAAAACC	-0.0389
GCATTACA	0.428
CTATTCAC	0.15

Sequence	PBM E-score
AAAACCCG	0.0195
AAGAGTGT	-0.0244
CAAGAAGA	-0.0574
GGGTTAGA	-0.142
GATAGGAC	-0.26
ACATCACT	0.233
CATCAACG	0.0679
CAGCAATC	-0.22
TGGTACCA	-0.258
ACGACATG	0.382
ACCTACAT	0.254
GGATAGAC	-0.0677
ACGGTACT	-0.0126
GGGGCTAC	-0.196
CGCAAGAG	-0.0527
CACGAACC	0.0734
AACATGAT	0.439
TAATCCTA	0.0524
AAGCGATC	0.0419
AAACACAC	0.34
TATGGAAA	-0.119
CGCCGAAA	-0.152
CGGACATC	-0.265
GGTCAAGA	-0.105
ATATGGCG	-0.138

Sequence	PBM E-score
AGTGGATC	-0.191
CGCGGACC	-0.198
CAGGATCA	-0.0775
CCTACTAG	-0.0463
CAGGGTAA	-0.11
AAAATAAC	0.148
AGCACACG	0.134
CACGTGAA	0.108
AGCCCAAT	0.0175
ACTTTTCA	0.0497
AGGCAATC	-0.0959
CCACTGGG	-0.211
CCTTTGTA	0.295
ACGAATGC	0.107
GTCGGCAC	-0.22
CGGGATCA	-0.135
AAGTACGT	0.257
ATCGCTTG	-0.149
GCCGAGAC	-0.164
ACTTTCAG	-0.119
GCACTCCA	-0.115
CACTCCGC	-0.249
CATATCTC	-0.0734
ACGATCAT	0.0309
GGTACGAC	-0.239

Sequence	PBM E-score
CAGACAGA	0.0294
CATCCCAA	-0.0513
GGCTACTA	-0.00399
CTCGATGC	-0.227
ACCCCGAC	-0.278
CGGGCTAA	-0.207
TAATAGAA	0.211
AGTCGAGG	-0.0737
CCTTGGGA	-0.172
ACTTACCA	0.0557
CTCAACTA	0.0819
AGACAGAC	0.0667
AGGGTCAG	-0.27
ATATAGAA	0.211
GTAGACTA	0.0977
AAAGTCCA	-0.107
GAACGAAC	-0.0668
AGCCTGGA	-0.352
ACTATCCT	-0.296
AGGGCTAG	-0.172
AATCCCTA	0.00595
AGGTGGGG	-0.213
GTCCCTGA	-0.107
CATAGCGA	0.133
CGTCACCC	-0.174

Sequence	PBM E-score
CACTTTCG	-0.0448
CACAGTTC	-0.0353
AAAATGGC	-0.0978
GTCCAGAA	0.0885
GAGATGGC	-0.12
CCGTCCCG	-0.146
ATGACTGG	-0.205
CCTTATGC	-0.0984
GAGCTATC	-0.142
GCGGCGGA	-0.0377
TCTTACCA	0.0183
TGCATTAA	0.248
CCGGCAAC	-0.14
CAAGTAGA	0.0289
AGGGACGA	-0.0784
CTAGGAAA	-0.156
CAGGGGGG	-0.374
AGCTATTG	0.13
CCTACCGC	-0.0837
AGGTGTTC	0.0623
ATGTCGCA	0.132
CAGAGGGA	-0.308
ATACGCGC	0.322
AGTCGTTG	-0.11
CGGAACAC	0.167

Sequence	PBM E-score
AAGAAGAA	0.0987
GCGATATA	0.067
ACTTCCTG	-0.031
CGATGCAG	-0.357
ATACTTAC	0.298
GAATCAAA	-0.144
TAATGCCA	0.114
GCCTCAAC	0.044
ATAAGGGG	-0.0723
ACTTATCA	-0.116
TAGACACA	0.194
AGTTGTCA	0.138
TCTATCCA	-0.135
CCCGAATA	-0.0607
AAGTAGAC	0.0105
AAATTATT	0.209
TGCTGTAA	0.17
CATGGCAA	0.101
AACCTGAA	-0.225
GCCGAACA	0.00108
CCAACTAG	0.0799
TTCAACAA	0.363
ACACAGGG	0.256
CCAATTGC	-0.215
GGGCTTGA	-0.071

Sequence	PBM E-score
GGGGATCA	-0.314
AAAGTCCC	-0.198
ACTTCGGG	-0.203
CTGTCTTC	-0.202
CAAAGCAC	-0.0286
ATATGGAT	0.0348
ACCTTGCT	-0.0655
ACAGCTAG	-0.183
ATCCACTG	-0.202
TAGCGGAA	-0.251
CGGCACGC	-0.22
ACTTTACG	0.262
AAAGTTCA	0.045
TGCCAAAA	0.00486
GTATTAAC	0.346
CGTGGGAA	-0.231
GATAGAGC	-0.115
CCACTAAC	0.0496
TGCATGAA	0.131
CACCGTCG	-0.14
CTTGCATA	-0.0145
AGCAGATA	-0.1
